Experimental data taken from the supplement of paper PMC12217912.
This is one part of the list. The full chains were built here from the parent and the listed change. Inactive controls read about 0.05.

B1: TEV protease; numbered along this chain (parent)
chain: MGESLFKGPRDYNPISSSICHLTNESDGHTTSLYGIGFGPFIITNKHLFRRNNGTLVVQSLHGVFKVKDTTTLQQHLVDGRDMIIIRMPKDFPPFPQKLKFREPQREERICLVTTNFQTKSMSSMVSDTSCTFPSGDGIFWKHWIQTKDGQCGSPLVSTRDGFIVGIHSASNFTNTNNYFTSVPKNFMELLTNQEAQQWVSGWRLNADSVLWGGHKVFMVKPEEPFQPVKEATQL

Variants of: B1
Assay: raw area under fraction-flipped curve 0-4 h after induction (AUC4h, not background-subtracted), DNA-recorder readout of cleavage of the substrate (dimensionless); higher = more cleavage of the substrate by the protease variant
Details: temperature: 34 °C; time window: 0-4 h after rhamnose induction
Experimental: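 In vivo DNA recorder in E. coli TOP10(DE3) ΔrhaA at 34 °C. Each TEVp single-site mutant (parent TEVp 0) is paired with a single-site variant of the 7-mer TEVs (canonical ENLYFQ|S). The substrate sits between flexible linkers in a Bxb1-sfGFP-TEVs-SsrA fusion, so cleavage stabilises Bxb1 and speeds flipping of a recombination array, read by NGS. The value is the raw area under the fraction-flipped curve over 0-4 h after rhamnose induction (AUC4h), with ≥20 reads per time point. It is not background-subtracted; inactive controls average about 0.047.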
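Also: Bxb1 expression induced with 0.2% (w/v) L-rhamnose at OD600 near 0.5, cultures sampled hourly, flipped fraction per protease–substrate barcode pair counted by paired-end Illumina sequencing.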

Variant	area with substrate EALYFQS	area with substrate ECLYFQS	area with substrate EELYFQS	area with substrate EGLYFQS	area with substrate EHLYFQS	area with substrate EKLYFQS	area with substrate ELLYFQS	area with substrate EQLYFQS	area with substrate ESLYFQS	area with substrate EVLYFQS	area with substrate EWLYFQS	area with substrate EYLYFQS	area with substrate EILYFQS	area with substrate EMLYFQS	area with substrate ERLYFQS	area with substrate ETLYFQS	area with substrate EFLYFQS	area with substrate EPLYFQS	area with substrate EDLYFQS
MGESLFKGPRDYNPISSSICHLTNESDGHTTSLYGIGFGPFIITNKHLFCRNNGTLVVQSLHGVFKVKDTTTLQQHLVDGRDMIIIRMPKDFPPFPQKLKFREPQREERICLVTTNFQTKSMSSMVSDTSCTFPSGDGIFWKHWIQTKDGQCGSPLVSTRDGFIVGIHSASNFTNTNNYFTSVPKNFMELLTNQEAQQWVSGWRLNADSVLWGGHKVFMVKPEEPFQPVKEATQL [R50C]	0.135	0.0964	0.134	0.125	0.122	0.123	0.162	0.119	0.134	0.193	0.105	0.104							
MGESLFKGPRDYNPISSSICHLTNESDGHTTSLYGIGFGPFIITNKHLQRRNNGTLVVQSLHGVFKVKDTTTLQQHLVDGRDMIIIRMPKDFPPFPQKLKFREPQREERICLVTTNFQTKSMSSMVSDTSCTFPSGDGIFWKHWIQTKDGQCGSPLVSTRDGFIVGIHSASNFTNTNNYFTSVPKNFMELLTNQEAQQWVSGWRLNADSVLWGGHKVFMVKPEEPFQPVKEATQL [F49Q]	0.0535			0.0465			0.0619		0.0542	0.0705	0.0402		0.0463	0.0836	0.0496	0.0586			
MGESLFKGPRDYNPISSSICHLTNESDGHTTSLYGIGFGPFIITNKHLDRRNNGTLVVQSLHGVFKVKDTTTLQQHLVDGRDMIIIRMPKDFPPFPQKLKFREPQREERICLVTTNFQTKSMSSMVSDTSCTFPSGDGIFWKHWIQTKDGQCGSPLVSTRDGFIVGIHSASNFTNTNNYFTSVPKNFMELLTNQEAQQWVSGWRLNADSVLWGGHKVFMVKPEEPFQPVKEATQL [F49D]	0.0542	0.0589	0.056	0.0622	0.0595	0.0484			0.0549	0.0348	0.0337		0.0601		0.0605	0.0512	0.0635		
MGESLFKGPRDYNPISSSICHLTNESDGHTTSLYGIGFGPFIITNKHLYRRNNGTLVVQSLHGVFKVKDTTTLQQHLVDGRDMIIIRMPKDFPPFPQKLKFREPQREERICLVTTNFQTKSMSSMVSDTSCTFPSGDGIFWKHWIQTKDGQCGSPLVSTRDGFIVGIHSASNFTNTNNYFTSVPKNFMELLTNQEAQQWVSGWRLNADSVLWGGHKVFMVKPEEPFQPVKEATQL [F49Y]	0.0715	0.0618	0.079		0.0718	0.0861	0.0574	0.0684	0.0703	0.0988	0.0706	0.0738	0.0636	0.0779	0.0728		0.076	0.0587	
MGESLFKGPRDYNPISSSICHLTNESDGHTTSLYGIGFGPFIITNKHLFRRNDGTLVVQSLHGVFKVKDTTTLQQHLVDGRDMIIIRMPKDFPPFPQKLKFREPQREERICLVTTNFQTKSMSSMVSDTSCTFPSGDGIFWKHWIQTKDGQCGSPLVSTRDGFIVGIHSASNFTNTNNYFTSVPKNFMELLTNQEAQQWVSGWRLNADSVLWGGHKVFMVKPEEPFQPVKEATQL [N53D]	0.134	0.108	0.115	0.107	0.109	0.139	0.1	0.103	0.117	0.107			0.0794	0.114			0.157		
MGESLFKGPRDYNPISSSICHLTNESDGHTTSLYGIGFGPFIITNKHLFRRNQGTLVVQSLHGVFKVKDTTTLQQHLVDGRDMIIIRMPKDFPPFPQKLKFREPQREERICLVTTNFQTKSMSSMVSDTSCTFPSGDGIFWKHWIQTKDGQCGSPLVSTRDGFIVGIHSASNFTNTNNYFTSVPKNFMELLTNQEAQQWVSGWRLNADSVLWGGHKVFMVKPEEPFQPVKEATQL [N53Q]	0.108	0.0915	0.107		0.095	0.0724	0.0821	0.0885	0.0845	0.0829		0.0882	0.0739	0.101	0.0766		0.0982	0.121	
MGESLFKGPRDYNPISSSICHLTNESDGHTTSLYGIGFGPFIITNKHLFRRNNGTLNVQSLHGVFKVKDTTTLQQHLVDGRDMIIIRMPKDFPPFPQKLKFREPQREERICLVTTNFQTKSMSSMVSDTSCTFPSGDGIFWKHWIQTKDGQCGSPLVSTRDGFIVGIHSASNFTNTNNYFTSVPKNFMELLTNQEAQQWVSGWRLNADSVLWGGHKVFMVKPEEPFQPVKEATQL [V57N]	0.0976					0.12	0.102		0.111	0.0947	0.0652		0.0864			0.0845	0.0921	0.127	0.115
MGESLFKGPRDYNPISSSICHLTNESDGHTTSLYGIGFGPFIITNKHLFRRNNGTLSVQSLHGVFKVKDTTTLQQHLVDGRDMIIIRMPKDFPPFPQKLKFREPQREERICLVTTNFQTKSMSSMVSDTSCTFPSGDGIFWKHWIQTKDGQCGSPLVSTRDGFIVGIHSASNFTNTNNYFTSVPKNFMELLTNQEAQQWVSGWRLNADSVLWGGHKVFMVKPEEPFQPVKEATQL [V57S]	0.159	0.127				0.106		0.142	0.0974	0.0998	0.0802		0.0871	0.0742	0.0806			0.154	
MGESLFKGPRDYNPISSSICHLTNESDGHTTSLYGIGFGPFIITNKHLFRRNNGTLVRQSLHGVFKVKDTTTLQQHLVDGRDMIIIRMPKDFPPFPQKLKFREPQREERICLVTTNFQTKSMSSMVSDTSCTFPSGDGIFWKHWIQTKDGQCGSPLVSTRDGFIVGIHSASNFTNTNNYFTSVPKNFMELLTNQEAQQWVSGWRLNADSVLWGGHKVFMVKPEEPFQPVKEATQL [V58R]	0.0499		0.0441			0.0573		0.0558	0.0511	0.0354			0.0418			0.0611			0.0492
MGESLFKGPRDYNPISSSICHLTNESDGHTTSLYGIGFGPFIITNKHLFRRQNGTLVVQSLHGVFKVKDTTTLQQHLVDGRDMIIIRMPKDFPPFPQKLKFREPQREERICLVTTNFQTKSMSSMVSDTSCTFPSGDGIFWKHWIQTKDGQCGSPLVSTRDGFIVGIHSASNFTNTNNYFTSVPKNFMELLTNQEAQQWVSGWRLNADSVLWGGHKVFMVKPEEPFQPVKEATQL [N52Q]	0.0871		0.0765	0.094	0.0911	0.062		0.0791	0.094	0.0926			0.0691	0.0629	0.0378	0.0852	0.0889	0.0894	
MGESLFKGPRDYNPISSSICHLTNESDGHTTSLYGIGFGPFIITPKHLFRRNNGTLVVQSLHGVFKVKDTTTLQQHLVDGRDMIIIRMPKDFPPFPQKLKFREPQREERICLVTTNFQTKSMSSMVSDTSCTFPSGDGIFWKHWIQTKDGQCGSPLVSTRDGFIVGIHSASNFTNTNNYFTSVPKNFMELLTNQEAQQWVSGWRLNADSVLWGGHKVFMVKPEEPFQPVKEATQL [N45P]	0.0469		0.0981			0.0582		0.0769	0.0765	0.0564		0.0907				0.0888			0.116
MGESLFKGPRDYNPISSSICHLTNESDGHTTSLYGIGFGPFIITNKHLFRRNNGCLVVQSLHGVFKVKDTTTLQQHLVDGRDMIIIRMPKDFPPFPQKLKFREPQREERICLVTTNFQTKSMSSMVSDTSCTFPSGDGIFWKHWIQTKDGQCGSPLVSTRDGFIVGIHSASNFTNTNNYFTSVPKNFMELLTNQEAQQWVSGWRLNADSVLWGGHKVFMVKPEEPFQPVKEATQL [T55C]	0.105	0.11	0.139	0.0947	0.0981	0.0739	0.101	0.121	0.102			0.13	0.123	0.101	0.101	0.105			
MGESLFKGPRDYNPISSSICHLTNESDGHTTSLYGIGFGPFIITNKHLFRRNNATLVVQSLHGVFKVKDTTTLQQHLVDGRDMIIIRMPKDFPPFPQKLKFREPQREERICLVTTNFQTKSMSSMVSDTSCTFPSGDGIFWKHWIQTKDGQCGSPLVSTRDGFIVGIHSASNFTNTNNYFTSVPKNFMELLTNQEAQQWVSGWRLNADSVLWGGHKVFMVKPEEPFQPVKEATQL [G54A]	0.0734		0.0772	0.0646	0.0724		0.0752	0.0634	0.0671	0.084	0.0778	0.0602	0.061	0.0721	0.0638			0.101	
MGESLFKGPRDYNPISSSICHLTNESDGHTTSLYGIGFGPFIITNKHLFRRNNMTLVVQSLHGVFKVKDTTTLQQHLVDGRDMIIIRMPKDFPPFPQKLKFREPQREERICLVTTNFQTKSMSSMVSDTSCTFPSGDGIFWKHWIQTKDGQCGSPLVSTRDGFIVGIHSASNFTNTNNYFTSVPKNFMELLTNQEAQQWVSGWRLNADSVLWGGHKVFMVKPEEPFQPVKEATQL [G54M]	0.0836	0.0689	0.102			0.0742	0.0569	0.0823	0.0622	0.0747	0.0722	0.0573	0.062	0.124	0.072	0.0948	0.0372	0.0713	
MGESLFKGPRDYNPISSSICHLTNESDGHTTSLYGIGFGPFIITNKHLFRRNNWTLVVQSLHGVFKVKDTTTLQQHLVDGRDMIIIRMPKDFPPFPQKLKFREPQREERICLVTTNFQTKSMSSMVSDTSCTFPSGDGIFWKHWIQTKDGQCGSPLVSTRDGFIVGIHSASNFTNTNNYFTSVPKNFMELLTNQEAQQWVSGWRLNADSVLWGGHKVFMVKPEEPFQPVKEATQL [G54W]	0.0599	0.0706	0.0748		0.0625	0.0662	0.0632		0.0688	0.0648		0.0702	0.0485	0.0679			0.0755		
MGESLFKGPRDYNPISSSICHLTNESDGHTTSLYGIGFGPFIITNKHLFRRNNCTLVVQSLHGVFKVKDTTTLQQHLVDGRDMIIIRMPKDFPPFPQKLKFREPQREERICLVTTNFQTKSMSSMVSDTSCTFPSGDGIFWKHWIQTKDGQCGSPLVSTRDGFIVGIHSASNFTNTNNYFTSVPKNFMELLTNQEAQQWVSGWRLNADSVLWGGHKVFMVKPEEPFQPVKEATQL [G54C]	0.0791	0.0773	0.0888	0.0749	0.0931	0.0799	0.0786	0.093	0.0701	0.062		0.0732		0.0772	0.0768	0.0718	0.0728	0.0652	
MGESLFKGPRDYNPISSSICHLTNESDGHTTSLYGIGFGPFIITNKHLFRRNNKTLVVQSLHGVFKVKDTTTLQQHLVDGRDMIIIRMPKDFPPFPQKLKFREPQREERICLVTTNFQTKSMSSMVSDTSCTFPSGDGIFWKHWIQTKDGQCGSPLVSTRDGFIVGIHSASNFTNTNNYFTSVPKNFMELLTNQEAQQWVSGWRLNADSVLWGGHKVFMVKPEEPFQPVKEATQL [G54K]	0.065			0.0613		0.0527	0.058		0.0768	0.0589		0.0539			0.0927	0.0756	0.0643		
MGESLFKGPRDYNPISSSICHLTNESDGHTTSLYGIGFGPFIITNKHLFRRNNGTLVVGSLHGVFKVKDTTTLQQHLVDGRDMIIIRMPKDFPPFPQKLKFREPQREERICLVTTNFQTKSMSSMVSDTSCTFPSGDGIFWKHWIQTKDGQCGSPLVSTRDGFIVGIHSASNFTNTNNYFTSVPKNFMELLTNQEAQQWVSGWRLNADSVLWGGHKVFMVKPEEPFQPVKEATQL [Q59G]	0.142	0.0901	0.109	0.0504			0.0849		0.0895	0.109			0.0826						
